# According to PubChem BioAssay AID2451 (National Center for Advancing Translational Sciences (NCATS), 2010):
# Out of some 290,000 compounds screened, about 2,100 (0.72%) were called active. Inconclusive means that the source gave no clear call. Such entries were picked first, then a sample of the others. The call rests on the fitted dose curve; in most records, active means well fitted inhibition curve with a large enough effect; inconclusive means small, poorly fitted or top-dose-only effect, or effect the other way; inactive means flat fitted curve, though single readings scatter. A potency beside an inconclusive call is a rough fit, not a confirmed value.
# Biological target: Fructose-bisphosphate aldolase (Giardia intestinalis (strain ATCC 50803 / WB clone C6)) (UniProt A8B2U2)
# Chain of UniProt A8B2U2 (A8B2U2 whole entry, looked up): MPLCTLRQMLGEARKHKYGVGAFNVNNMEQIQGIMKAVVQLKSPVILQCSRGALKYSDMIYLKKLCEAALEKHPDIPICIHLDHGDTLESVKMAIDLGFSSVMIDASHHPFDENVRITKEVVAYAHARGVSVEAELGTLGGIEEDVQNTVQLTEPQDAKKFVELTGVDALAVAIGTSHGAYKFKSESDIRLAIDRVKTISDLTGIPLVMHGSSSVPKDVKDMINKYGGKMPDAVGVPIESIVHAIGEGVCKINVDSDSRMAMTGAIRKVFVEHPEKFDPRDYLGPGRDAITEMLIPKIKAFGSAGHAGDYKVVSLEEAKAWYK
# Test: qHTS Assay for Inhibitors of Fructose-1,6-bisphosphate Aldolase from Giardia Lamblia; further: nearly all actives have a fitted effect of over 55% in size
# Settings: purified Giardia FBPA; activity, negative = inhibition: at 59.6 µM (top of the series) unless noted
# How it was run: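 Giardia FBPA (40 nM reagent) was preincubated 10 min at RT with compound (up to 57.5 uM final), then substrate plus GAPDH/TPI/NAD/arsenate coupling system with diaphorase/resazurin was added; resorufin fluorescence (525/598 nm) was read after 20 min.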
# On the % scale 0 is the no-effect control and ±100 the full control effect; potency means the concentration at half of the fitted maximal effect; tags describe the fitted curve by direction and shape.
Structure (SMILES),Potency,"activity, negative = inhibition"
Cc1ccc(C(=O)Nc2nnc(S(=O)(=O)N3CCC(C)CC3)s2)cc1,"inconclusive: 17.8 µM [inhibitor, single point]",–
CC(/C=N/NC(=O)CSc1nnc(SCc2ccccc2)s1)=C\c1ccco1,"inconclusive: 7.92 µM [inhibitor, partial curve]",–
COc1ccc(CCN(CC(=O)NC2CCCC2)C(=O)Cn2nnc(-c3ccc(C)o3)n2)cc1OC,–,inactive: -1.36%
Cc1cccc2sc(NNC(=O)c3ccc(S(=O)(=O)N4CCc5ccccc5C4)cc3)nc12,"inconclusive: 35.4 µM [inhibitor, single point]",–
Clc1cccc(CSc2nnc(-c3ccccn3)n2Cc2ccco2)c1,–,inactive: 5.37%
O=c1oc2ccc(Cl)cc2nc1/C=C(\O)c1cccs1,"inconclusive: 15.8 µM [inhibitor, partial curve]",–
CCOC(=O)c1ccc(NC(=O)c2nc[nH]c2C(=O)N[C@@H](Cc2ccccc2)C(=O)OC(C)(C)C)cc1,"inconclusive: 39.7 µM [inhibitor, single point]",–
COC(=O)c1cc2c(C)[nH]c(C)c2cc(C(=O)OC)c1=O,"inconclusive: 9.98 µM [inhibitor, partial curve]",–
Cc1ccc(OCC(=O)N2CCN(Cc3ccc4c(c3)OCO4)CC2)cc1,"inconclusive: 17.7 µM [inhibitor, partial curve]",–
CO[C@H]1COC(=O)CCC[C@H](C)[C@H](OC)COC(=O)C/C=C\[C@@H]1C,–,inactive: 3.69% [at 12.9 µM]
CCC(CC)C(=O)Nc1nnc(S(=O)(=O)N2c3ccccc3CC2C)s1 (stereo unspecified),"inconclusive: 14.1 µM [inhibitor, partial curve]",–
COc1ccc(NC(=O)Nc2sc(NS(=O)(=O)c3ccccc3)nc2C)cc1,"inconclusive: 50 µM [inhibitor, partial curve, poor fit]",–
Cc1cccc(CS(=O)(=O)Cc2ccc(C(=O)NCCCN3CCCC3)o2)c1,"inconclusive: 17.7 µM [inhibitor, single point]",–
COC(=O)Oc1ccc(/C=N/NS(=O)(=O)c2ccccc2)cc1OC,"inconclusive: 22.4 µM [inhibitor, partial curve]",–
O=C(Oc1ccc(NC2=NS(=O)(=O)c3ccccc32)cc1)c1cccnc1,–,inactive: 8.89%
Cc1ccc2oc(=O)n(CCCOc3ccccc3)c2c1,–,inactive: -4.05%
O=C(O)c1ccccc1Nc1cc(Cl)cc(Cl)c1,"inconclusive: 17.7 µM [activator, single point]",–
NC(=O)c1ccc(/C=N/O)nc1,active: 17.7 µM,–
COc1cccc(/C=N/NC(=O)CNC(=O)C(c2ccccc2)c2ccccc2)c1O,–,inactive: -12.7%
COCCc1nnc(NC(=O)C23CC4CC(CC(C4)C2)C3)s1,–,inactive: 10.8%
O=C(N/N=C\C1C(=O)NC(=S)N(c2ccccc2)C1=O)c1ccc(O)cc1 (stereo unspecified),"inconclusive: 12.6 µM [inhibitor, partial curve]",–
CCN(c1ccc(OC)cc1)S(=O)(=O)c1nnc(NC(=O)c2ccco2)s1,"inconclusive: 28.2 µM [activator, partial curve]",–
COc1cccc(C(=O)N2CCN(Cc3ccccn3)CC2)c1,active: 25.1 µM,–

Structure (SMILES),Potency,"activity, negative = inhibition"
COc1ccc(-c2nc3n(c2C)Cc2ccccc2-3)cc1,–,inactive: -6.25%
Nc1nc2cc3ccccc3cc2[nH]c1=O,"inconclusive: 22.4 µM [inhibitor, partial curve]",–
Cc1sc(NC(=S)Nc2ccc(F)cc2)c(C(N)=O)c1C,"inconclusive: 19.9 µM [inhibitor, single point]",–
Cc1ccc(N2CC(C(=O)Nc3nnc(SCCC4OCCO4)s3)CC2=O)cc1 (stereo unspecified),"inconclusive: 28.2 µM [inhibitor, single point]",–
COc1ccc(OC)c(S(=O)(=O)N(C)CC(=O)Nc2ccccc2OC)c1,–,inactive: -4.76%
C/C(CCC1CC(C)OC1=O)=N/Nc1nc(-c2ccccc2)cs1 (stereo unspecified),"inconclusive: 15.8 µM [inhibitor, single point]",–
CC(C)Oc1ccccc1C1CC(=O)Nc2cc3c(cc21)OCCO3 (stereo unspecified),–,inactive: -24.1%
O=C(NC(=S)NC(=O)c1ccccc1F)c1ccccc1F,"inconclusive: 17.7 µM [inhibitor, partial curve]",–
CN1CCN(C2=C(NS(=O)(=O)c3ccccc3)C(=O)c3ccccc3C2=O)CC1,"inconclusive: 3.16 µM [inhibitor, full curve]",–
O=S(=O)(Nc1cc2nc3ccccc3nc2n1Cc1ccccc1)c1ccc(Cl)cc1,"inconclusive: 0.561 µM [inhibitor, full curve]",–
Cc1cccc(C)c1OCc1cc(C(=O)NCc2cn(C)nc2C)no1,–,inactive: 11%
CC(Nc1cc(=O)n(C)c(=O)[nH]1)c1ccccc1 (stereo unspecified),"inconclusive: 12.6 µM [inhibitor, partial curve]",–
CNCCCCCCCCSc1nc(C(C)C)ccc1C(=O)c1cccs1,"inconclusive: 25.1 µM [inhibitor, partial curve]",–
C=CCSC1=N/C(=C\C=C\c2ccco2)C(=O)S1,active: 6.29 µM,–
C=CCc1cc(Cl)ccc1OCCCn1ccnc1,"inconclusive: 17.8 µM [inhibitor, partial curve]",–
O=C(Cn1c(NCCO)nc2ccccc21)c1ccc(F)cc1,"inconclusive: 25.1 µM [inhibitor, partial curve]",–
COc1ccc(O)c(C2=Nc3ccccc3N=C(c3ccco3)C2)c1,"inconclusive: 7.06 µM [inhibitor, partial curve]",–
Cc1csc(N/N=C\c2cccnc2)n1,"inconclusive: 15.8 µM [inhibitor, partial curve]",–
Cc1cc(=O)[nH]c(-n2ncc(C#N)c2N)n1,"inconclusive: 17.7 µM [inhibitor, partial curve]",–
COc1ccc(-c2nn(CCC#N)cc2C(=O)Nc2ccccc2)cc1OC,–,inactive: -0.456%
CCOCC(=O)Nc1ccc(S(=O)(=O)Nc2nccs2)cc1,"inconclusive: 25.1 µM [inhibitor, partial curve]",–
COc1cccc(CCc2nnc(CCC(=O)N3CCN(Cc4ccccn4)CC3)o2)c1,active: 5.61 µM,–
COc1ccc(NC(=O)CSc2nnc(-c3cnccn3)n2C)cc1OC,"inconclusive: 28.2 µM [inhibitor, single point]",–
